{"source": "the supplement of paper PMC8728848", "binders": {"B1": {"name": "MGL2 (Mus musculus), Q8JZN1 (protein)", "chain": "MTMRYENFQNLEREEKNQEMRNGDKKGGMESPKFALIPSQSFLWRILSWTHLLLFSLGLSLLLLVVISVIGSQNSQLRRDLGTLRAILDNTTSKIKAEFQSLDSRADNFEKGISSLKVDVEDHRQELQAGRDLSQKVTSLESTLEKREQALKTDLSDLTDHVQQLETDLKALTCQLANLKNNGSEVACCPLHWTEHEGSCYWFSESEKSWPEADKYCRLENSHLVVVNSLEEQNFLQNRLANVLSWMGLTDQNGPWRWVDGTDFDKGFKNWRPLQPDNWHGHMLGGGEDCAHFSYDGRWNDDVCQRHYHWICETELGKASSAHSPQLIASVP"}}, "assay_in_all_cases": "glycan array binding signal (z-score within array); higher = stronger binding", "conditions_in_all_cases": "glycan notation: IUPAC condensed, linker removed", "key": {"Neu5Ac(a2-3)Gal": {"target": "Neu5Ac(a2-3)Gal", "how_it_was_run": "(§1)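 Arrays were curated from the Consortium for Functional Glycomics database, 3228 in total, and kept only where the protein sequence was available. Binding is expressed as a within-array Z-score. This score was averaged across arrays of the same protein sequence at different concentrations or buffers and across linkers, and negative values can be read as non-binding.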"}, "[1]": {"target": "Neu5Ac(a2-3)Gal(b1-3)GalNAc", "how_it_was_run": "as §1"}, "[2]": {"target": "Neu5Ac(a2-3)Gal(b1-3)GalNAc(b1-3)Gal(a1-4)Gal(b1-4)Glc", "how_it_was_run": "as §1"}, "[3]": {"target": "Neu5Ac(a2-3)Gal(b1-3)GalNAc(b1-4)[Neu5Ac(a2-3)]Gal(b1-4)Glc", "how_it_was_run": "as §1"}, "[4]": {"target": "Neu5Ac(a2-3)Gal(b1-3)GalNAc(b1-4)[Neu5Ac(a2-8)Neu5Ac(a2-3)]Gal(b1-4)Glc", "how_it_was_run": "as §1"}, "[5]": {"target": "Neu5Ac(a2-3)Gal(b1-3)GalNAc6S", "how_it_was_run": "as §1"}, "[6]": {"target": "Neu5Ac(a2-3)Gal(b1-3)GlcNAc", "how_it_was_run": "as §1"}, "[7]": {"target": "Neu5Ac(a2-3)Gal(b1-3)GlcNAc(b1-2)Man", "how_it_was_run": "as §1"}, "[8]": {"target": "Neu5Ac(a2-3)Gal(b1-3)GlcNAc(b1-2)Man(a1-3)[GlcNAc(b1-4)][Neu5Ac(a2-3)Gal(b1-3)GlcNAc(b1-2)Man(a1-6)]Man(b1-4)GlcNAc(b1-4)GlcNAc", "how_it_was_run": "as §1"}, "[9]": {"target": "Neu5Ac(a2-3)Gal(b1-3)GlcNAc(b1-2)Man(a1-3)[Neu5Ac(a2-3)Gal(b1-3)GlcNAc(b1-2)Man(a1-6)]Man(b1-4)GlcNAc(b1-4)GlcNAc", "how_it_was_run": "as §1"}, "[10]": {"target": "Neu5Ac(a2-3)Gal(b1-3)GlcNAc(b1-3)Gal(b1-3)GlcNAc", "how_it_was_run": "as §1"}, "[11]": {"target": "Neu5Ac(a2-3)Gal(b1-3)GlcNAc(b1-3)Gal(b1-4)GlcNAc", "how_it_was_run": "as §1"}, "[12]": {"target": "Neu5Ac(a2-3)Gal(b1-3)GlcNAc(b1-3)GalNAc", "how_it_was_run": "as §1"}, "[13]": {"target": "Neu5Ac(a2-3)Gal(b1-3)GlcNAc(b1-4)Gal(b1-4)Glc", "how_it_was_run": "as §1"}, "[14]": {"target": "Neu5Ac(a2-3)Gal(b1-3)GlcNAc(b1-6)GalNAc", "how_it_was_run": "as §1"}, "[15]": {"target": "Neu5Ac(a2-3)Gal(b1-3)GlcNAc6S", "how_it_was_run": "as §1"}, "[16]": {"target": "Neu5Ac(a2-3)Gal(b1-3)[Fuc(a1-4)]GlcNAc", "how_it_was_run": "as §1"}, "[17]": {"target": "Neu5Ac(a2-3)Gal(b1-3)[Fuc(a1-4)]GlcNAc(b1-3)Gal(b1-3)[Fuc(a1-4)]GlcNAc", "how_it_was_run": "as §1"}, "[18]": {"target": "Neu5Ac(a2-3)Gal(b1-3)[Fuc(a1-4)]GlcNAc(b1-3)Gal(b1-4)[Fuc(a1-3)]GlcNAc", "how_it_was_run": "as §1"}, "[19]": {"target": "Neu5Ac(a2-3)Gal(b1-3)[GlcNAc(b1-6)]GalNAc", "how_it_was_run": "as §1"}, "[20]": {"target": "Neu5Ac(a2-3)Gal(b1-3)[Neu5Ac(a2-6)]GalNAc", "how_it_was_run": "as §1"}, "[21]": {"target": "Neu5Ac(a2-3)Gal(b1-3)[Neu5Ac(a2-6)]GlcNAc(b1-3)[Fuc(a1-3)[Gal(b1-4)]GlcNAc(b1-6)]Gal(b1-4)Glc", "how_it_was_run": "as §1"}, "[22]": {"target": "Neu5Ac(a2-3)Gal(b1-3)]Neu5Ac(a2-3)Gal(b1-4)]GlcNAc", "how_it_was_run": "as §1"}, "Neu5Ac(a2-3)Gal(b1-4)Glc": {"target": "Neu5Ac(a2-3)Gal(b1-4)Glc", "how_it_was_run": "as §1"}, "[23]": {"target": "Neu5Ac(a2-3)Gal(b1-4)GlcNAc", "how_it_was_run": "as §1"}, "[24]": {"target": "Neu5Ac(a2-3)Gal(b1-4)GlcNAc(b1-2)Man", "how_it_was_run": "as §1"}, "[25]": {"target": "Neu5Ac(a2-3)Gal(b1-4)GlcNAc(b1-2)Man(a1-3)[GlcNAc(b1-4)][Neu5Ac(a2-3)Gal(b1-4)GlcNAc(b1-2)Man(a1-6)]Man(b1-4)GlcNAc(b1-4)GlcNAc", "how_it_was_run": "as §1"}, "[26]": {"target": "Neu5Ac(a2-3)Gal(b1-4)GlcNAc(b1-2)Man(a1-3)[Neu5Ac(a2-3)Gal(b1-4)GlcNAc(b1-2)Man(a1-6)]Man(b1-4)GlcNAc(b1-4)GlcNAc", "how_it_was_run": "as §1"}, "[27]": {"target": "Neu5Ac(a2-3)Gal(b1-4)GlcNAc(b1-2)Man(a1-3)[Neu5Ac(a2-3)Gal(b1-4)GlcNAc(b1-2)Man(a1-6)]Man(b1-4)GlcNAc(b1-4)[Fuc(a1-6)]GlcNAc", "how_it_was_run": "as §1"}, "[28]": {"target": "Neu5Ac(a2-3)Gal(b1-4)GlcNAc(b1-2)Man(a1-3)[Neu5Ac(a2-6)Gal(b1-4)GlcNAc(b1-2)Man(a1-6)]Man(b1-4)GlcNAc(b1-4)GlcNAc", "how_it_was_run": "as §1"}, "[29]": {"target": "Neu5Ac(a2-3)Gal(b1-4)GlcNAc(b1-2)[Neu5Ac(a2-3)Gal(b1-4)GlcNAc(b1-4)]Man(a1-3)[GlcNAc(b1-4)][Neu5Ac(a2-3)Gal(b1-4)GlcNAc(b1-2)[Neu5Ac(a2-3)Gal(b1-4)GlcNAc(b1-6)]Man(a1-6)]Man(b1-4)GlcNAc(b1-4)GlcNAc", "how_it_was_run": "as §1"}, "[30]": {"target": "Neu5Ac(a2-3)Gal(b1-4)GlcNAc(b1-2)[Neu5Ac(a2-3)Gal(b1-4)GlcNAc(b1-4)]Man(a1-3)[GlcNAc(b1-4)][Neu5Ac(a2-3)Gal(b1-4)GlcNAc(b1-4)Man(a1-6)]Man(b1-4)GlcNAc(b1-4)GlcNAc", "how_it_was_run": "as §1"}, "[31]": {"target": "Neu5Ac(a2-3)Gal(b1-4)GlcNAc(b1-2)[Neu5Ac(a2-3)Gal(b1-4)GlcNAc(b1-6)]Man(a1-6)[Neu5Ac(a2-3)Gal(b1-4)GlcNAc(b1-2)Man(a1-3)]Man(b1-4)GlcNAc(b1-4)GlcNAc", "how_it_was_run": "as §1"}, "[32]": {"target": "Neu5Ac(a2-3)Gal(b1-4)GlcNAc(b1-2)[Neu5Ac(a2-3)Gal(b1-4)GlcNAc(b1-6)]Man(a1-6)[Neu5Ac(a2-3)Gal(b1-4)GlcNAc(b1-2)Man(a1-3)][GlcNAc(b1-4)]Man(b1-4)GlcNAc(b1-4)GlcNAc", "how_it_was_run": "as §1"}, "[33]": {"target": "Neu5Ac(a2-3)Gal(b1-4)GlcNAc(b1-3)Gal", "how_it_was_run": "as §1"}, "[34]": {"target": "Neu5Ac(a2-3)Gal(b1-4)GlcNAc(b1-3)Gal(b1-3)GlcNAc", "how_it_was_run": "as §1"}, "[35]": {"target": "Neu5Ac(a2-3)Gal(b1-4)GlcNAc(b1-3)Gal(b1-4)GlcNAc", "how_it_was_run": "as §1"}}, "note": "The list shows a part of the results."}
{"binder": "B1", "values": [{"measurement": "glycan array binding signal (z-score)", "setting": "Neu5Ac(a2-3)Gal", "result": -0.115}, {"measurement": "glycan array binding signal (z-score)", "setting": "[1]", "result": -0.237}, {"measurement": "glycan array binding signal (z-score)", "setting": "[2]", "result": -0.189}, {"measurement": "glycan array binding signal (z-score)", "setting": "[3]", "result": -0.18}, {"measurement": "glycan array binding signal (z-score)", "setting": "[4]", "result": -0.174}, {"measurement": "glycan array binding signal (z-score)", "setting": "[5]", "result": -0.228}, {"measurement": "glycan array binding signal (z-score)", "setting": "[6]", "result": -0.254}, {"measurement": "glycan array binding signal (z-score)", "setting": "[7]", "result": -0.179}, {"measurement": "glycan array binding signal (z-score)", "setting": "[8]", "result": -0.189}, {"measurement": "glycan array binding signal (z-score)", "setting": "[9]", "result": -0.154}, {"measurement": "glycan array binding signal (z-score)", "setting": "[10]", "result": -0.22}, {"measurement": "glycan array binding signal (z-score)", "setting": "[11]", "result": -0.274}, {"measurement": "glycan array binding signal (z-score)", "setting": "[12]", "result": -0.123}, {"measurement": "glycan array binding signal (z-score)", "setting": "[13]", "result": -0.183}, {"measurement": "glycan array binding signal (z-score)", "setting": "[14]", "result": 0.635}, {"measurement": "glycan array binding signal (z-score)", "setting": "[15]", "result": 0.221}, {"measurement": "glycan array binding signal (z-score)", "setting": "[16]", "result": -0.173}, {"measurement": "glycan array binding signal (z-score)", "setting": "[17]", "result": -0.126}, {"measurement": "glycan array binding signal (z-score)", "setting": "[18]", "result": -0.223}, {"measurement": "glycan array binding signal (z-score)", "setting": "[19]", "result": -0.223}, {"measurement": "glycan array binding signal (z-score)", "setting": "[20]", "result": -0.073}, {"measurement": "glycan array binding signal (z-score)", "setting": "[21]", "result": -0.24}, {"measurement": "glycan array binding signal (z-score)", "setting": "[22]", "result": -0.169}, {"measurement": "glycan array binding signal (z-score)", "setting": "Neu5Ac(a2-3)Gal(b1-4)Glc", "result": -0.191}, {"measurement": "glycan array binding signal (z-score)", "setting": "[23]", "result": 0.136}, {"measurement": "glycan array binding signal (z-score)", "setting": "[24]", "result": -0.034}, {"measurement": "glycan array binding signal (z-score)", "setting": "[25]", "result": -0.204}, {"measurement": "glycan array binding signal (z-score)", "setting": "[26]", "result": -0.193}, {"measurement": "glycan array binding signal (z-score)", "setting": "[27]", "result": -0.133}, {"measurement": "glycan array binding signal (z-score)", "setting": "[28]", "result": -0.135}, {"measurement": "glycan array binding signal (z-score)", "setting": "[29]", "result": -0.098}, {"measurement": "glycan array binding signal (z-score)", "setting": "[30]", "result": -0.2}, {"measurement": "glycan array binding signal (z-score)", "setting": "[31]", "result": -0.042}, {"measurement": "glycan array binding signal (z-score)", "setting": "[32]", "result": -0.247}, {"measurement": "glycan array binding signal (z-score)", "setting": "[33]", "result": -0.3}, {"measurement": "glycan array binding signal (z-score)", "setting": "[34]", "result": -0.278}, {"measurement": "glycan array binding signal (z-score)", "setting": "[35]", "result": -0.262}]}
